Test results: ChEMBL document CHEMBL1201862, “PubChem BioAssay data set” (2004)
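Results reflect a 48-hour exposure of cells in 96-well plates to compound at five concentrations. Abbreviation: GI50, concentration required for 50% inhibition of growth.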 The source made the active and inactive calls. No stated cut-off is given here; in the data, active = GI50 up to about 1.1 µM and inactive = higher.

These compounds were tested on NCI-H322M (assay: DTP human tumour cell line panel, 48 h).

Compound | GI50
COC(=O)C1=C(C(=O)OC)C2(C(=O)OC)OC1(OC)C(C1(C(=O)OC)C(C(=O)OC)=C1C(=O)OC)=C2C(=O)OC (stereo unspecified) | inactive: > 100 µM
CCOC(=O)/C=C/[C@H](O[Si](c1ccccc1)(c1ccccc1)c1ccccc1)C(C)(C)C | inactive: > 31.6 µM
Clc1cccc(-c2sc(-c3cccs3)cc2Cc2cccs2)c1 | inactive: > 10 µM
O=C(O)Cc1ccc(N2N=C(c3ccccc3)CC2=O)cc1 | inactive: > 100 µM
O=C(c1ccccc1)c1ccc(N2C(=O)/C(=C/c3cccc([N+](=O)[O-])c3)N=C2c2ccccc2)c(N2C(=O)/C(=C/c3cccc([N+](=O)[O-])c3)N=C2c2ccccc2)c1 | inactive: > 100 µM
COc1ccc(C(C)NNC(=O)c2ccncc2)cc1OC (stereo unspecified) | inactive: > 100 µM
COc1cc(/C=C2\N=C(c3ccccc3)N(c3ccc(C(=O)c4ccccc4)cc3N3C(=O)/C(=C/c4ccc(O)c(OC)c4)N=C3c3ccccc3)C2=O)ccc1O | inactive: 20.3 µM
CC(CN(C)C)/C(=N\Nc1ccccc1)c1ccccc1 (stereo unspecified) | inactive: 19.8 µM
CS(=O)(=O)CC(=O)c1ccccc1 | inactive: > 100 µM
COc1ccc2c(C)cc(N/N=C/c3ccc(OC)c4ccccc34)nc2c1 | inactive: 15.2 µM
Cc1cc(NS(=O)(=O)c2ccc(NC(NC(=O)OC(C)C)(C(F)(F)F)C(F)(F)F)cc2)nc(C)n1 | inactive: > 100 µM
CC1(C)[C@H]2Cc3cc4nc5ccccn5c4cc3[C@@H]1C2 | inactive: 17 µM
CCCC(=O)OC(OC(=O)CCC)c1ccc([N+](=O)[O-])o1 | inactive: > 100 µM
S=P(C1CCCCC1)(C1CCCCC1)C(c1cccnc1)N1CCCC1 (stereo unspecified) | inactive: > 100 µM
O=[N+]([O-])/C(C(Cl)=C(Cl)Cl)=C(/Sc1ccccc1)N1CCCCC1 | inactive: > 100 µM
CC(=O)Nc1[nH]c(C#N)nc1C#N | inactive: > 100 µM
C=CC[C@H]1[C@H](O[Si](C)(C)C(C)(C)C)C=CC(=O)[C@@H]1CC(=O)OCC | inactive: 14.9 µM
COc1c(C(=O)c2ccc([N+](=O)[O-])cc2)cc(C(C)(C)C)cc1C(C)(C)C | inactive: 70.1 µM
O=C(O)C1CCCN1Cc1c[nH]c2ccccc12 (stereo unspecified) | inactive: > 100 µM
CSc1c(C#N)c(N)n(-c2ccc(C)cc2)c(=O)c1C#N | inactive: > 100 µM
CC(C)[C@@H]1C=C(c2ccccc2)c2ccccc2C1C(C#N)(C#N)C(C)C (stereo partly specified) | inactive: > 100 µM
O=C(O)c1nc2nc(Cl)c(Cl)nc2[nH]1 | inactive: > 100 µM
CC(=O)Nc1cc2cc(NS(=O)(=O)c3cc(C(F)(F)F)cc(C(F)(F)F)c3)ccc2oc1=O | inactive: > 100 µM
Cn1c(=O)c2nc3nnc(C#N)c(N)n3c2n(C)c1=O | inactive: > 100 µM

Compound | GI50
COc1cccc2c1OC1c3ccccc3OCC1(O)C2 (stereo unspecified) | inactive: > 100 µM
Nc1ccc(S(=O)(=O)c2ccc(NC(=O)c3cccnc3)cc2)cc1 | inactive: > 100 µM
O=C(O)/C(=C\c1ccccc1Cl)S(=O)(=O)c1ccccc1 | inactive: > 100 µM
Cc1ccc2c(c1)NC(=O)CCSSCCC(=O)N2 | inactive: > 100 µM
OCc1ccccc1O[C@H]1O[C@H](CO)[C@@H](O)[C@H](O)[C@H]1O | inactive: > 100 µM
CC(C)=CC[C@]12CCN(C)[C@H]1N(S(=O)(=O)c1ccccc1)c1ccccc12 | inactive: > 27.2 µM
CN1CCN(c2ccc3nc(C4=C(O)C(=O)c5c(nc(CO)n5C)C4=O)[nH]c3n2)CC1 | inactive: > 100 µM
O=C(O)C(Sc1ccc(Cl)cc1)Sc1ccc(Cl)cc1 | inactive: 39.5 µM
O=C1CSC(c2c[nH]c3ccccc23)N1c1cccc(Cl)c1 (stereo unspecified) | inactive: 45.7 µM
COc1ccc(/C=C2\CCC(CN3CCOCC3)C2=O)cc1 (stereo unspecified) | inactive: 17.1 µM
CCC1(CC)C(=O)OC(=O)C1(CC)CC | inactive: > 100 µM
C=CCNC(=S)N/C=C(\C(=O)OCC)C(=O)C(=O)OCC | inactive: > 100 µM
CCN(CC)CCCNc1nccc2c(C)c3c(cc12)c1cnccc1n3C | active: 0.069 µM
Cc1cc(SCC(=O)c2ccccc2)nc2ccccc12 | inactive: 64 µM
N=C1c2ccccc2C(=O)c2c(NCCNCCO)ccc(O)c21 | inactive: 4.34 µM
CN(C)c1ccc(C2CC(c3ccc4ccccc4c3O)=NN2c2ccc([N+](=O)[O-])cc2[N+](=O)[O-])cc1 (stereo unspecified) | inactive: 52.1 µM
Cn1c(S)nnc1CNc1ccc(-c2nnc(S)n2C)cc1 | inactive: > 100 µM
O=C1NC(=S)NC(=O)C1C(c1ccc([N+](=O)[O-])cc1)C1C(=O)NC(=S)NC1=O.c1ccncc1 | inactive: > 100 µM
[C-]#[N+]C(=C\c1ccc(O)cc1)/C(=C/c1ccc(O)cc1)[N+]#[C-] [XANTOCILLIN] | inactive: 2.18 µM
N[C@@H]1C[C@H](N)c2c(Cl)sc(Cl)c21 | inactive: > 100 µM
COC(=O)C(Cc1nc2ccc(Cl)cc2nc1O)/C(=N/O)C(=O)Nc1cccc(Cl)c1C (stereo unspecified) | inactive: > 100 µM
Cc1ccc(S(=O)(=O)NC(CN)C(=O)O)cc1 (stereo unspecified) | inactive: > 100 µM
Cc1ccc2c(n1)C(=O)c1ccccc1C2=O | inactive: 20.3 µM
O=c1[nH]nc(Nc2ccccc2)c2nnn(Cc3ccccc3)c12 | inactive: > 100 µM

Compound | GI50
Cc1ccc2nc(Cl)c(/C=N/N3C(=O)/C(=C/c4ccc(N(C)C)cc4)N=C3c3ccccc3)cc2c1 | inactive: > 100 µM
Cc1ccc(S(=O)OCc2c(C)c(C)c(COS(=O)c3ccc(C)cc3)c(C)c2C)cc1 (stereo unspecified) | inactive: > 100 µM
O=C1NC(SSC2=NNC3(C(=O)N2)c2ccccc2-c2ccccc23)=NNC12c1ccccc1-c1ccccc12 | inactive: > 10 µM
COC(=O)c1cccc(C(=O)OC)c1 | inactive: > 100 µM
CC1CCc2sc3nc(S)n(-c4ccccc4)c(=O)c3c2C1 (stereo unspecified) | inactive: 68.2 µM
O=C1SC(c2ccc(Cl)cc2)(c2ccc(Cl)cc2)c2ccccc21 | inactive: > 100 µM
NS(=O)(=O)c1ccc(NC(=O)c2cccc3c(=O)c4ccccc4[nH]c23)cc1 | inactive: 54.6 µM
COc1ccc(C2(O)c3ccccc3C(=O)N(C)C2(O)c2ccc(OC)cc2)cc1 (stereo unspecified) | inactive: > 100 µM
Cc1cn([C@@H]2C[C@H]2CO)c(=O)[nH]c1=O | inactive: > 100 µM
Cc1cn(CC2(CO)CCC2)c(=O)[nH]c1=O | inactive: > 100 µM
O=[N+]([O-])c1ccc(/N=N/N2CCCC2)cc1 | inactive: > 100 µM
O=C(O)C(=O)/C=C\c1ccc(Cl)cc1 | inactive: > 100 µM
CN1CCN(Cn2nc(COc3ccccc3Cl)n(/N=C/c3ccc(-c4ccc(Cl)cc4Cl)o3)c2=S)CC1 | inactive: 27.9 µM
Cc1c(CCOC=O)c(=O)[nH]c2nncn12 | inactive: > 100 µM
Cc1ccc(S(=O)(=O)c2c(O)c3ccc(O)c(C)c3oc2=O)cc1 | inactive: > 100 µM
Fc1cccc(F)c1C1SCc2nc3ccccc3n21 (stereo unspecified) [THIAZOLOBENZIMIDAZOLE] | inactive: > 100 µM
CCOC(=O)C1=C(NC)OCC1=O | inactive: > 100 µM
O=C1OC(CC(=O)c2ccccc2Cl)C(Cl)=C1Cl (stereo unspecified) | inactive: > 100 µM
CC(C)C1C(=O)N2CCCC2C2(O)OC(NC(=O)C3C=C4c5cccc6[nH]cc(c56)CC4N(C)C3)(C(C)C)C(=O)N12 (stereo unspecified) | inactive: 27.9 µM
O=C(O)c1cc([N+](=O)[O-])cc2c(=O)c3cnccc3[nH]c12 | inactive: > 100 µM
CCCCC1=CSC(c2ccccc2)=C(c2ccccc2)S1 | inactive: > 100 µM
O=C(CC(C(=O)c1ccoc1)c1ccco1)c1ccco1 (stereo unspecified) | inactive: > 100 µM
COc1cc(/C=C/C(C)=O)ccc1OP(=O)(O)O | inactive: > 100 µM
Nc1ncnc2c1ncn2C1CCC(CO)O1 (stereo unspecified) | inactive: > 100 µM

Compound | GI50
[N-]=[N+]=Nc1c([N+](=O)[O-])c(=O)n2c3c(cccc13)CCC2 | inactive: 32 µM
CN(C)CCCc1cccnc1 | inactive: > 100 µM
OC(CCN1CCN(CCOC(c2ccccc2)c2ccccc2)CC1)c1ccccc1 (stereo unspecified) | inactive: 25.2 µM
Clc1c2ncccc2cc2nn[nH]c12 | inactive: > 100 µM
C/C(=C1\C(=O)C(c2ccccc2)N(c2ccccc2)C1=O)c1ccc(Cl)cc1 (stereo unspecified) | inactive: 17.3 µM
CCCC1C(=O)Nc2cccc3ncn(c23)C1=O (stereo unspecified) | inactive: > 100 µM
O=C1N[C@H](C(=O)O)[C@@H](c2ccc(OCc3ccccc3)cc2)O1 | inactive: > 100 µM
CC(C)OC(=O)C1(C(C)C)CCc2ccc(C(=O)CCC(=O)O)cc21 (stereo unspecified) | inactive: > 100 µM
O=c1c2cc(-c3ccccc3)cnc2sn1-c1ccc(Br)cc1 | inactive: > 100 µM
CN(C)c1ccc(C=C2C(=O)NC(=S)NC2=O)c2ccccc12 | inactive: > 100 µM
CC(=O)/C(=C/c1ccccc1F)C(=O)c1ccccc1 | inactive: 97.7 µM
CCC(C)(O)c1cn(-c2ccc(Cl)cc2)nn1 (stereo unspecified) | inactive: > 100 µM
COC(=O)c1cccc(OC)c1C#Cc1c(OC)cccc1OC | inactive: > 100 µM
CCN(CC)C(=O)N1CCN(C=S)CC1 | inactive: > 100 µM
COc1ccc(N2C(=O)C3c4[nH]c5ccc(OC)cc5c4C4CCC(C(C)C)CC4C3C2=O)cc1 (stereo unspecified) | inactive: > 100 µM
O=C1C(c2c(O)[nH]c3ccc(S(=O)(=O)O)cc23)=Nc2ccccc21 | inactive: > 100 µM
O=C(NC(N1CCN(c2cc3c(cc2F)c(=O)c(C(=O)O)cn3C2CC2)CC1)(C(F)(F)F)C(F)(F)F)c1ccccc1 | inactive: 23.7 µM
CCOC(=O)N1CCC(=O)C(CNC23CC4CC(CC(C4)C2)C3)C1 (stereo unspecified) | inactive: > 100 µM
COc1ccc(C(c2cc(OC)c(OC)c(OC)c2)N2C(=O)CCC2C(=O)O)cc1 (stereo unspecified) | inactive: 43.3 µM
CCc1[nH]c(=O)nc(N)c1-c1ccc(N2CCCCC2)c([N+](=O)[O-])c1 | inactive: > 100 µM
S=C(N/N=C(\c1ccccc1)c1ccccn1)NC1CCCCC1 | inactive: 8.63 µM
COc1nc2ccc(Cl)c(C(O)c3ccccc3)c2nc1OC (stereo unspecified) | inactive: 50.7 µM
N=C(N)N/N=C/c1oc(-c2ccc(S(=O)(=O)O)o2)c(-c2ccc(S(=O)(=O)O)o2)c1[N+](=O)[O-] | inactive: > 100 µM
O=NNc1cnc(O)nc1O | inactive: > 100 µM
